Among all 52,000 compounds or so, about 4,300 (8.3%) were called active. Cut-off read from the data, not from the text of the source: active = survival mostly below about 52% (no sharp cut-off); inactive = mostly above about 56%. The list shows a part of the results.
These compounds were tested on DeltatarO mutant (assay: S. aureus survival, RN4220 and DeltatarO strains – OD600, teichoic acid synthesis inhibitors, primary screen (AID 463173)). Settings: S. aureus RN4220 wild type/DeltatarO growth, OD600, 18 h, active compounds read low, screened at 18.75 µg/mL (by protocol).
With `CCCNC(=O)N1CCC(C(=O)c2cccc(F)c2)CC1` the survival was inactive: 87%. `Cc1c(-c2nsc(NC(=O)c3ccccc3)n2)nnn1-c1ccc(C(F)(F)F)c(Cl)c1` was tested, and the survival was inactive: 86%. With `CCCCCS(=O)(=O)c1oc(-c2cccs2)nc1S(=O)(=O)c1ccc(C)cc1` the survival was active: 3%. `CC(C)(C)OC(=O)N1CCC(c2c(C(=O)N3CCC(c4ccccc4)C3)cnn2-c2cccc(Cl)c2)CC1` (stereo unspecified) was tested, and the survival was inactive: 124%. In the case of `COc1ccc(C2CC(=O)N(CC(=O)Nc3cc(C)ccc3C)c3ccccc3S2)cc1` (stereo unspecified), the survival is reported as inactive: 79%. In the case of `CCCCN(CCCC)C(=O)c1cc2c(=O)n3cccc(C)c3nc2s1`, the survival is reported as active: -13%. For `Cc1cccc(OCC(=O)N(Cc2cccs2)c2ccc(Cl)cc2)c1C`, the survival was inactive: 61%. For `NC(=O)c1ccc(S(N)(=O)=O)o1`, the survival was inactive: 93%. `COC(=O)c1c(-c2cccs2)csc1NC(=O)COc1ccc(C(C)(C)C)cc1` was tested, and the survival was inactive: 82%. For `Cc1ccc(C(=O)Nc2ccc(-c3cn4cccnc4n3)cc2)cc1C`, the survival was inactive: 51%. With `COc1ccccc1CNc1ccc(-c2nc(-c3cccnc3)no2)cc1[N+](=O)[O-]` the survival was inactive: 78%. With `CCOc1ccccc1C1C(C(=O)N2CCCCC2)=C(C)Nc2nc3ccccc3n21` (stereo unspecified) the survival was inactive: 70%. With `CCOc1ccccc1NC(=O)c1nn(-c2ccc(C)cc2)c(=O)n(C)c1=O` the survival was inactive: 74%. `Cc1ccccc1NC(=O)NC1(C(=O)N2CCC(C(N)=O)CC2)CCCCC1` was tested, and the survival was inactive: 81%. For `O=C(NCC1CCN(Cc2cccc(Cl)c2)CC1)Nc1cc(Cl)ccc1Cl`, the survival was active: 17%. For `COc1cccc(NC(=O)CN2C(=O)c3cccnc3Oc3ccc(Cl)cc32)c1`, the survival was inactive: 80%. In the case of `COc1ccc(N(C)C(=O)CCn2cnc3onc(-c4ccc(F)cc4)c3c2=O)c(OC)c1`, the survival is reported as inactive: 92%. In the case of `CCc1ccc(NC(=O)c2sc(-n3nc(C)c(Cc4ccc(OC)cc4)c3C)nc2C)cc1`, the survival is reported as inactive: 100%. For `O=C(CCC1CCCCC1)Nc1c[nH]c(=O)[nH]c1=O`, the survival was inactive: 87%. `Cc1ccc(NC(=O)NCCc2c(C)nn(C)c2C)cc1Cl` was tested, and the survival was inactive: 109%. `CCn1ccc2cc(S(=O)(=O)N3CCCN(C(=O)Nc4cccc(Cl)c4)CC3)ccc21` was tested, and the survival was inactive: 83%. In the case of `Cc1cc(NC(=O)c2cccnc2)ccc1NC(=O)c1ccco1`, the survival is reported as inactive: 102%. For `COc1ccc(C2=NN(CC(=O)NCCc3ccc(OC)c(OC)c3)C(=O)CC2)cc1`, the survival was inactive: 100%. `COc1ccc(N(C)C(=O)c2cn(C3CCCCC3)c(=O)c3c2c2ccccc2n3C)cc1` was tested, and the survival was inactive: 67%. For `Cc1cc2n(n1)C(c1cc(C(C)(C)C)c(O)cc1O)Nc1ccccc1-2` (stereo unspecified), the survival was inactive: 141%. For `CCOc1ccc(OCC)c(NC(=O)c2nnn(CC(=O)Nc3ccc(C)cc3C)c2N)c1`, the survival was inactive: 104%. For `CSc1cccc(NC(=O)CN2C(=O)COc3ccc(Cl)cc32)c1`, the survival was inactive: 50%. `CCOc1ccc(C(=O)N2CCC(c3nc4ccccc4o3)CC2)cc1` was tested, and the survival was inactive: 81%. For `CCOC(=O)C1CCN(c2ncnc3c2oc2ccccc23)CC1`, the survival was inactive: 113%. With `CCCCOc1ccc(C(=O)Nc2cccc(-c3nc4cccnc4s3)c2)cc1` the survival was inactive: 92%. In the case of `COc1ccc(NC(=O)COc2ccc(-c3nn(C)c(=O)c4ccccc34)cc2)cc1`, the survival is reported as inactive: 75%. `COc1ccccc1CNC(=O)C(NS(=O)(=O)c1cccs1)C(C)C` (stereo unspecified) was tested, and the survival was inactive: 58%. In the case of `Cc1ccc(-c2nc3sc(CCNC(=O)c4ccc(Br)o4)c(C)n3n2)cc1`, the survival is reported as inactive: 84%. With `COc1ccc(-c2cc3ccc(O)c(CN4CCOCC4)c3oc2=O)cc1OC` the survival was inactive: 116%. `COc1ccccc1-c1nnc(SCC(=O)c2ccc(Cl)cc2)n1-c1ccccc1` was tested, and the survival was active: 1%. With `CCOc1ccc(NC(=O)CSc2nc3c(oc4ccccc43)c(=O)n2-c2ccccc2C)cc1` the survival was inactive: 79%. With `CC(C)N=C1SC(CC(=O)Nc2ccccc2)C(=O)N1C(C)C` (stereo unspecified) the survival was inactive: 93%. `COc1ccccc1NC(=O)C1=C(C)Nc2ncnn2C1c1ccccc1C(=O)O` (stereo unspecified) was tested, and the survival was inactive: 73%. `COc1ccc(-n2c(=O)c3c4c(sc3n(Cc3ccc(F)cc3)c2=O)CCCC4)c(OC)c1` was tested, and the survival was inactive: 47%. In the case of `COc1cccc(CNC(=O)c2cc3c(s2)-c2ccccc2OC3)c1`, the survival is reported as active: 42%. `COc1ccc(NC(=O)c2cc(C3CC3)nc3c2c(C)nn3-c2ccccc2)cc1` was tested, and the survival was inactive: 53%. For `COc1ccc(S(=O)(=O)N2CCC(O)(c3cccnc3)CC2)cc1OC`, the survival was inactive: 58%. `CCOc1ccccc1C(=O)Nc1ccc2nc(N(CC)CC)cc(C)c2c1` was tested, and the survival was active: 65%. In the case of `Cc1ccc(OCC(=O)Nc2nnc(SCc3cc(=O)c4ccccc4[nH]3)s2)cc1`, the survival is reported as inactive: 99%. For `Cc1cc(N2CCCCC2)nc2ccc(NC(=O)c3cccc(Cl)c3)cc12`, the survival was active: 0%. `CCOc1ccc(CNS(=O)(=O)c2cc3c(cc2C)NC(=O)CO3)cc1OC` was tested, and the survival was inactive: 115%. `CC1(C)CC(NS(=O)(=O)c2ccc(S(=O)(=O)N3CCOCC3)cc2)CCO1` (stereo unspecified) was tested, and the survival was inactive: 62%. In the case of `CCOC(=O)c1c(S(=O)(=O)N2CCCC(C(=O)Nc3cccc(Cl)c3)C2)c(C)n(C)c1C` (stereo unspecified), the survival is reported as inactive: 91%. With `CCCCN(CC)CCCNC(=O)CCN1N=C(c2ccc(OC)cc2)CCC1=O` the survival was inactive: 96%. `COc1ccccc1NC(=O)C(=O)NCCc1csc(-c2cccc(F)c2)n1` was tested, and the survival was inactive: 102%. In the case of `O=C(NCCc1ccccc1)c1cc(-c2ccc(Cl)cc2)on1`, the survival is reported as inactive: 79%. `COc1cccc(NC(=O)Nc2cccc(-c3cn4cccnc4n3)c2)c1` was tested, and the survival was inactive: 78%. For `CCOc1ccc(-c2nnc(Nc3ccc(S(N)(=O)=O)cc3)c3ccccc23)cc1`, the survival was inactive: 56%. For `CCCOC1(C(F)(F)F)NC(=O)N(c2ccc(Cl)cc2)C1=O` (stereo unspecified), the survival was inactive: 66%. In the case of `Cc1cc(C)c(NC(=O)CSc2nc(=O)[nH]c3c2CCCC3)c(C)c1`, the survival is reported as inactive: 83%. In the case of `Cc1sc2ncn(CC(=O)N(C)c3ccc(Br)cc3)c(=O)c2c1S(=O)(=O)N1CCC(C)CC1`, the survival is reported as inactive: 70%. `Cc1nc2c(C(=O)NCc3ccccc3)c[nH]n2c(=O)c1Cc1ccccc1Cl` was tested, and the survival was inactive: 49%. With `Cc1nnc(SCC(=O)N(C(C)C)C(C)C)[nH]c1=O` the survival was inactive: 76%. In the case of `CC(=O)N1CCc2cc(S(=O)(=O)CCC(=O)N3CCN(c4cccc(C)c4C)CC3)ccc21`, the survival is reported as inactive: 100%. `CCN1CCN(CCCNC(=O)c2cnn(-c3ccccc3)c2C2CCN(C(=O)OC(C)(C)C)CC2)CC1` was tested, and the survival was inactive: 72%. For `CCOC(=O)c1ccc(Nc2nc3ccccc3nc2NS(=O)(=O)c2ccc(Cl)cc2)cc1`, the survival was active: 37%. With `O=C(CSc1nnc(CNc2cccc(Cl)c2)o1)Nc1cccc(Cl)c1` the survival was inactive: 101%. In the case of `COc1ccc(N2CCN(S(=O)(=O)CCNC(=O)C(c3ccccc3)c3ccccc3)CC2)cc1`, the survival is reported as inactive: 79%. For `Sc1ccc2oc3ccc(S)cc3c2c1`, the survival was inactive: 93%. `Cc1ccc(-c2c(CN3CCN(c4cccc(C(F)(F)F)c4)CC3)csc2C)cc1` was tested, and the survival was inactive: 76%. In the case of `COc1cccc(C2C=C(c3ccc(C)c(C)c3)Nc3nnnn32)c1OC` (stereo unspecified), the survival is reported as inactive: 72%. With `O=C(NC(=O)c1ccc(F)cc1)Nc1ccc(-c2cc(C(F)(F)F)nn2-c2ccccc2)cc1` the survival was inactive: 61%. For `O=C(NCCc1csc2nc(-c3ccccc3F)nn12)c1ccco1`, the survival was inactive: 79%. `Cc1oc2c(c(C)cc3oc(=O)c(CC(=O)NCCc4ccccc4)c(C)c32)c1C` was tested, and the survival was inactive: 100%. `CN1C(C(=O)c2ccccc2)=C(OC(=O)c2ccc(Br)cc2)c2ccccc2S1(=O)=O` was tested, and the survival was inactive: 123%. In the case of `Cc1ccc(NC(=O)Nc2ccc3c(c2)N(C)C(=O)c2ccccc2S3)c(C)c1`, the survival is reported as inactive: 105%. In the case of `COc1ccc(NC(=O)c2cc3c(=O)n(Cc4ccco4)ccc3nc2C)cc1`, the survival is reported as inactive: 58%. With `CCOC(=O)c1c(C)[nH]c(C)c1S(=O)(=O)NCC(=O)Nc1cc(C)ccc1OC` the survival was inactive: 60%. `COc1ccc(-n2ccnc2SCC(=O)Nc2ccc(F)cc2F)cc1` was tested, and the survival was inactive: 100%. With `Cc1cc2nn(-c3ccccc3)nc2cc1NC(=O)c1cccc2c(Cl)cccc12` the survival was active: 43%. With `O=C(NCCc1ccccc1)c1ccc(CS(=O)(=O)c2ccc(Br)cc2)o1` the survival was inactive: 129%. For `Cc1ccc2onc(CNC(=O)N3CCN(c4cccc(C)c4C)CC3)c2c1`, the survival was inactive: 48%. For `COc1ccc(-c2cc(C(=O)Nc3cccnc3Cl)no2)cc1OC`, the survival was inactive: 135%. `CCSc1nnc2n(-c3cccc(C)c3)c(=O)c3c4c(sc3n12)CCCC4` was tested, and the survival was inactive: 71%. In the case of `O=C(CN1CCC(N2CCCCC2)CC1)NC(c1ccccc1)c1ccccc1`, the survival is reported as inactive: 98%. In the case of `COc1cc(NC(=O)c2ccc(C)cc2)ccc1NC(=O)c1cc2ccccc2o1`, the survival is reported as inactive: 54%. `Cc1ccc(C)c(CN2C(=O)C(=O)c3ccccc32)c1` was tested, and the survival was inactive: 92%. In the case of `CCOC(=O)C1=C(C)C(c2ccc(OC)cc2)NC(=O)N1` (stereo unspecified), the survival is reported as inactive: 94%. `CCCC(=O)c1cc(F)c(N2CCOCC2)cc1C` was tested, and the survival was inactive: 73%. `O=C1CSC2(C(=O)N(Cc3ccccc3F)c3ccccc32)N1c1ccc(F)cc1` (stereo unspecified) was tested, and the survival was inactive: 78%. For `O=S(=O)(/C=C/c1ccccc1)N1CCOCC1`, the survival was inactive: 67%. `CCOc1ccc(-c2nc(SCC(=O)Nc3ccc4c(c3)OCO4)c(-c3ccc(F)cc3)[nH]2)cc1` was tested, and the survival was inactive: 84%. `Cc1nc2cccnc2n1-c1cccc(C(=O)N2CCN(c3ccc(Cl)cc3)CC2)c1` was tested, and the survival was inactive: 85%. For `CCC(=O)N1c2ccccc2CC1C(=O)NCc1ccc(OC(C)C)cc1` (stereo unspecified), the survival was inactive: 97%. For `CCN(CCCNC(=O)Cn1ncc2c([nH]c3ccc(C)cc32)c1=O)c1cccc(C)c1`, the survival was inactive: 83%. With `COc1ccc(Br)cc1CN1C(=O)c2ccccc2C1C(=O)NC1CCCCCC1` (stereo unspecified) the survival was inactive: 97%.

Reference: PubChem BioAssay AID463173 (ICCB-Longwood Screening Facility, Harvard Medical School, 2010)
